From PubChem BioAssay (NCATS)
Results filed as inconclusive are left out. Unless noted, calls follow the shape of the dose curve; as a rule, active = well fitted curve in the direction sought with a large enough effect; inconclusive = small, poorly fitted or top-dose-only effect, or another doubt; inactive = no such curve, though single readings can be large; an effect the other way counts as inactive or inconclusive. The source holds more than one record for some entries. This list holds those alone. The source may hold further records. Values that stand side by side are repeats in other runs, samples, wells, individuals or studies. More than one record can exist for a structure, and the calls need not agree. What stands in brackets tells the records apart. Letters count within one entry. Counts like (3×) give the number of equal values in this list.

Tests used:
[1] = biological target: Cellular tumor antigen p53 (Homo sapiens) (UniProt P04637); experiment: Primary qHTS for small molecule compounds that upregulate eGFP-tagged delta133p53alpha (in N-terminal) cells. (AID 2060322); conditions: NCI-H358 eGFP-delta133p53alpha fluorescence, 24 h; stronger effect = higher value;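 also: cells pre-induced with doxycycline then dosed without doxycycline; 0% = DMSO vehicle and 100% = reference activator; nearly all actives have a fitted effect of over 75% in size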
[2] = biological target: Aldehyde dehydrogenase, mitochondrial (Homo sapiens) (UniProt P05091); experiment: qHTS for Inhibitors of the Aldehyde Dehydrogenase Family (ALDH2) Confirmatory screens (AID 2061303; active = well fitted inhibition curve with a large enough effect; title and protocol of this record describe different tests; also: nearly all actives have a fitted effect of over 45% in size; also: potency is read from the fitted curve at half-maximal effect); conditions: ALDH inhibition qHTS; series mostly up to 45.4 µM
[3] = biological target: Aldehyde dehydrogenase, mitochondrial (Homo sapiens) (UniProt P05091); experiment: qHTS for Inhibitors of the Aldehyde Dehydrogenase Family (ALDH2) Primary screen (AID 2061308); conditions: ALDH2 enzyme inhibition qHTS, 1536-well; series mostly up to 56 µM; also: nearly all actives have a fitted effect of over 55% in size; also: potency is read from the fitted curve at half-maximal effect
[4] = biological target: Retinaldehyde dehydrogenase 3 (Homo sapiens) (UniProt P47895); experiment: qHTS for Inhibitors of the Aldehyde Dehydrogenase Family (ALDH1A3) Validation screen (AID 2061312); conditions: ALDH1A3 enzyme inhibition qHTS validation, fluorescence; series mostly up to 42.4 µM; also: nearly all actives have a fitted effect of over 45% in size; also: potency is read from the fitted curve at half-maximal effect
[5] = biological target: Retinaldehyde dehydrogenase 3 (Homo sapiens) (UniProt P47895); experiment: qHTS for Inhibitors of the Aldehyde Dehydrogenase Family (ALDH1A3) Primary screen (AID 2061315); conditions: ALDH inhibition qHTS; series mostly up to 56 µM; also: potency is read from the fitted curve at half-maximal effect
[6] = biological target: Aldehyde dehydrogenase 1A1 (Homo sapiens) (UniProt P00352); experiment: qHTS for Inhibitors of the Aldehyde Dehydrogenase Family (ALDH1A1) Confirmatory screens (AID 2061316); conditions: ALDH inhibition qHTS; series mostly up to 47.3 µM; also: nearly all actives have a fitted effect of over 65% in size; also: potency is read from the fitted curve at half-maximal effect

UniProt P04637, sequence (P04637 whole entry, looked up): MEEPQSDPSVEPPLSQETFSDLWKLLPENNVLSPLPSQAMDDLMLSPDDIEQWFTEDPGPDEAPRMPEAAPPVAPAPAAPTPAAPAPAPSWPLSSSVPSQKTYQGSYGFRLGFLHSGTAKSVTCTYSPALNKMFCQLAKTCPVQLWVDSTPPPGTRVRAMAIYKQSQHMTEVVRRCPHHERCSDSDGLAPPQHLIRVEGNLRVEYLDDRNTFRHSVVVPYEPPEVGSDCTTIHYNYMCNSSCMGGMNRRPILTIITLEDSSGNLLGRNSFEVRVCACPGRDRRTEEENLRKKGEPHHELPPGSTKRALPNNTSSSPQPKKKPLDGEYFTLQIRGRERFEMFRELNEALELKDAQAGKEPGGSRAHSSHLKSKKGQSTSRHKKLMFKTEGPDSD

Q: For Cc1cc(C(C)(C)C)c(O)c(C)c1CC1=NCCN1, which activation [1] is on record?
A: The activation was “inactive: -40.9, -1.95, -26.6, 5.25% [separate samples]”.

Q: How did the Potency [2] turn out when O=C(O)c1ccc(-n2cccc2/C=C2\SC(=O)N(Cc3ccc(Cl)cc3)C2=O)cc1 was run?
A: The Potency was “active: 15.8 µM [sample A] and inactive [sample B]”.

Q: And the Potency [3]?
A: Its Potency is “active: 12.6 µM [sample A] and inactive [sample B]”.

Q: Which Potency [3] does the source give for CC(=O)Nc1sc2c(c1-c1nc3ccccc3s1)CNC2 here?
A: Its Potency is “active: 11.2 µM and inactive (3×) [separate samples]”.

Q: With CC(C)(C)c1ccc(S(=O)(=O)/C=C/C#N)cc1 as the molecule, how does the Potency [4] read?
A: Its Potency is “inactive [sample A] and active: 4.47 µM [sample B]”.

Q: For O=C1NC(=O)/C(=C/c2ccc3c(c2)OC(F)(F)O3)S1, which Potency [4] is on record?
A: Its Potency is “inactive [sample A] and active: 31.6 µM [sample B]”.

Q: Which Potency [5] does the source give for COc1cc(Nc2ncc(F)c(Nc3ccc4c(n3)NC(=O)C(C)(C)O4)n2)cc(OC)c1OC here?
A: Its Potency is “inactive [sample A] and inactive [sample B] and active: 11.2 µM [sample C]”.

Q: Which Potency [6] does the source give for CCOc1ccc(Nc2nc(-c3c(C)nc4ccccn34)cs2)cc1 here?
A: The Potency was “active: 7.98 µM [sample A] and inactive [sample B]”.

Q: With Cc1cc(C)c2c(c1)C(N(Cc1cc(C(F)(F)F)cc(C(F)(F)F)c1)c1nnn(C)n1)CCCN2CC1CCC(C(=O)O)CC1 (centres undefined) as the molecule, how does the Potency [6] read?
A: Its Potency is “active: 11.3 µM [sample A] and inactive [sample B]”.
